Data reported in PubChem BioAssay AID196 (DTP/NCI, 2004).
Toxic doses and inconclusive results are not listed. Not every entry of the source has a single result; some have several. This list holds those alone. There may be further records. Results that share an entry differ for a reason that is not stated; some may be repeats, others may stem from another dose, organism or construct than stated.

Tested on: BDF1 mice, intracerebral B16 melanoma, median survival T/C
Experiment: NCI In Vivo Anticancer Drug Screen. Data for tumor model B16 Melanoma (intracerebral) in B6D2F1 (BDF1) mice
Conditions: endpoint: median survival time; dose: 8000.0 mg/kg/injection; schedule: Q01DX005 (ip); vehicle: saline; higher = longer survival
Experimental: The antitumor activity of compounds was measured in mice bearing transplantable tumors. Survival or tumor size were measured and the results are expressed as the measurement made in the treated group (T) divided by the measurement made in the vehicle treated control group (C). The tumor model used in this assay is B16 Melanoma (intracerebral) in B6D2F1 (BDF1) mice

SMILES: CS(C)=O
- T/C: 100 % of control, 107 % of control, 487 % of control
